Each structure is given as a SMILES string. In all, about 150,000 compounds went through this assay and about 540 (0.36%) showed an effect of 50% or more. Some of the results follow.

The test system of the assay is Plasmodium falciparum. The assay is described as follows: Primary screen in NF54 nanoGlo assay, in single point, at 2uM, 72h; a lower Z score goes with more inhibition. Particulars: timepoint 72 hour. Type of assay: functional, Erythrocyte.
In the case of `CCc1ncc(CN2CCO[C@@H](COCC3CC3)C2)cn1`, the “% Inhibition” value is recorded as -17% and the Z score is given as 3.22.
The corresponding values for `O=C(NC[C@H]1CCc2ccccc2N1)Nc1cccnc1` are -5% and 0.73.
The like results for `COC(=O)c1cc(CN2CCOc3cc(N(C)C)ccc32)c[nH]1` were, in that order, 3% and -0.49.
The corresponding values for `O=C(NCC(=O)N1CCCC1)c1cccc(-c2cn[nH]c2)c1` are -11% and 1.83.
For the compound `COCc1nc(CN(Cc2ccc3c(c2)OCO3)C2(C)CCCC2)cs1`, the “% Inhibition” value is -1% and the Z score worked out at 0.1.
The like results for `COc1ccc(-n2nc(C)c3c2NC(=O)C[C@@H]3c2cccc3ccccc23)cc1` were, in that order, -15% and 2.88.
The like results for `Cc1ccn2c(NCc3cccc(C#N)c3)nnc2c1` were, in that order, 2% and -0.24.
For `NCC1([C@@H]2CCCCN2Cc2noc(-c3ccccc3)n2)CCC1`, the “% Inhibition” value was -6% and the Z score is listed as 1.12.
The corresponding values for `CN(C)S(=O)(=O)N(Cc1ccco1)Cc1nn(C)c2c1CCC2` are 9% and -1.13.
The like results for `O=C(CN1CCc2[nH]c3c(F)c(Cl)ccc3c(=O)c2C1)Nc1ccc(F)c(Cl)c1` were, in that order, 8% and -1.47.
On to `O=c1[nH]cnc2c1nc(N1CCCCC1)n2C1OC(CO)C(O)C1O` (stereo not drawn), for which the “% Inhibition” value worked out at 33% and the Z score is -0.92.
Consider `Cc1c(Cl)cnc(NC(=O)COC(=O)C2CCCC2)c1Cl`, for which the “% Inhibition” value is given as -6% and the Z score was 1.03.
On to `OC[C@H](CNc1nc(-c2ccccc2)nc2ccccc12)Cc1ccco1`, for which the “% Inhibition” value was -16% and the Z score is given as 1.57.
`C[C@H](O)C1CCN(C(=O)Nc2cccc3ccn(C)c23)CC1`: the “% Inhibition” value is on record as -10% and the Z score is listed as 1.97.
The like results for `CC(C)N1C(=O)NC(C)(C2CCCN(CCc3cnn(C)c3)C2)C1=O` (stereo not drawn) were, in that order, -14% and 1.38.
The corresponding values for `COc1ccc(CC(=O)NCCn2cnc3ccccc32)c(Cl)c1` are 7% and -1.17.
Turning to `O=C(NC[C@@H](CO)CC1CCCC1)C1CCCC1`, the “% Inhibition” value is -3% and the Z score was 0.41.
The like results for `O=C(NCc1ccccn1)c1cc2n(n1)CCN(Cc1ccc(Cl)c(Cl)c1)C2=O` were, in that order, 8% and -0.78.
Regarding `COc1ccnc(CNC(=O)Cc2ccccn2)c1`, the “% Inhibition” value is 1% and the Z score was -0.21.
Consider `CCOC(=O)CCC(=O)Nc1cccc(-c2cnc3n2CCC3)c1`, for which the “% Inhibition” value was -6% and the Z score stood at 0.96.
`Cc1noc(CO[C@H]2CCC23CCN(C(=O)c2ccccc2F)CC3)n1`: the “% Inhibition” value was -2% and the Z score is listed as 0.25.
The like results for `CN1CCCN(CC(=O)NC(Cc2ccccc2)[C@H]2C[C@H](O)C2)CC1` (stereo partly drawn) were, in that order, -4% and 0.9.
Consider `CCCn1nccc1S(=O)(=O)NCC1(N(C)C)CCCCC1`, for which the “% Inhibition” value was determined as 3% and the Z score is -0.55.
The like results for `Cc1nccn1-c1cc(CNS(=O)(=O)N2CCCCC2)ccn1` were, in that order, -1% and 0.16.
Regarding `CO[C@H]1[C@H](NC(=O)Cc2cccs2)c2ccccc2C12CCN(Cc1cc(F)ccc1F)CC2`, the “% Inhibition” value amounted to 5% and the Z score is on record as -0.71.
The corresponding values for `CCC(COc1ccccc1)NC(=O)CC1CNCCO1` (stereo not drawn) are -5% and 0.49.
The like results for `O=C(Nc1ccc2c(c1)CCCC2)[C@@H]1CCCO1` were, in that order, -4% and 0.47.
In the case of `COc1ccc(C)cc1S(=O)(=O)N1CCc2nc(NC(=O)c3cc(C)on3)sc2C1`, the “% Inhibition” value was -7% and the Z score was found to be 0.98.
The like results for `COc1ccc(S(=O)(=O)N(CC(=O)N2CCNCC2)C2CCCC2)cc1` were, in that order, 3% and -0.57.
The like results for `O=S(=O)(c1ccsc1)N1CCC(OCCN2CCCC2)CC1` were, in that order, -12% and 1.33.
Consider `CCCCN1C(=O)c2c(NC(C)=O)c3cc(OC)ccc3n2C[C@@]1(C)C(=O)NC1CCCCC1`, for which the “% Inhibition” value is on record as -13% and the Z score was 1.27.
For `O=c1[nH]nc(CCn2ccnc2-c2ccc(CN3CCCC3)s2)[nH]1`, the “% Inhibition” value was -5% and the Z score stood at 0.72.
As to `CN(CCc1ccccc1F)[C@H]1CCN(CC(F)(F)F)C1=O`, the “% Inhibition” value is given as 3% and the Z score is given as -0.44.
For the compound `CC(C)(C)C(=O)Nc1cnc(N2CCCCCC2)nc1`, the “% Inhibition” value is reported as -35% and the Z score came out at 3.11.
For `CCC(CC)(CN)NS(=O)(=O)c1c(F)cccc1F`, the “% Inhibition” value is on record as 7% and the Z score was -0.99.
The like results for `CNS(=O)(=O)[C@H]1CCCN(c2ccc3cc(Cl)cnc3n2)C1` were, in that order, -14% and 2.15.
`Cc1ccc(-n2nc(C(=O)NCCc3ccccn3)c(=O)n(Cc3cccc(C(F)(F)F)c3)c2=O)cc1`: the “% Inhibition” value was -19% and the Z score is 1.7.
Take `CN1CCN(c2nc3c(c(Oc4ccc(F)c(F)c4)n2)CN(C(=O)c2ccc(F)cc2)CC3)CC1`: the “% Inhibition” value is on record as -8% and the Z score amounted to 0.92.
The like results for `NC(=O)CN(Cc1coc(-c2cccs2)n1)C1CCCC1` were, in that order, -15% and 1.39.
The corresponding values for `Cc1ccccc1CNC(=O)c1ccc(N2CCOc3ccccc32)s1` are -1% and 0.14.
The corresponding values for `C[C@@H]1CN(C(=O)CCC(C)(C)C(=O)N2C[C@@H](C)O[C@@H](C)C2)C[C@H](C)O1` are -15% and 2.04.
As for `CCc1ccc(COc2ccc(-n3c(=O)cc(C(F)(F)F)n(CC)c3=O)cc2)c(O[C@@H](C)C(=O)OC)c1`, the “% Inhibition” value is -32% and the Z score is reported as 3.75.
The like results for `O=C(Nc1ccc(N2CCN(c3c(F)c(F)c(F)c(F)c3F)CC2)cc1)c1cccc2ccccc12` were, in that order, 1% and -0.18.
As to `Cc1nc(C(=O)N2CCCC[C@@H]2CN)c(C)s1`, the “% Inhibition” value is -22% and the Z score was found to be 2.01.
As for `CCCn1cnnc1[C@H](C)NS(=O)(=O)CCC`, the “% Inhibition” value is on record as -3% and the Z score stood at 0.57.
The corresponding values for `CC(C)Oc1ccc(CN2CCOC[C@H]2C(=O)O)cc1Cl` are 1% and -0.16.
Regarding `CC(C)CC[C@@H](c1ccccc1)N(C)C(=O)c1csnn1`, the “% Inhibition” value is 16% and the Z score is -2.05.
With `CCN(C)C1(CNS(=O)(=O)CC(C)C)CCCCC1`, the “% Inhibition” value is reported as -4% and the Z score is 0.83.
Take `C[C@@H](Cc1cnccn1)N(C)C(=O)c1cccn1C`: the “% Inhibition” value is -12% and the Z score is 2.54.
The corresponding values for `CN1CCC(NS(=O)(=O)CC2CCC(F)C2)CC1=O` (stereo not drawn) are -2% and 0.34.
The like results for `CC(Cc1cccs1)NC(=O)CC(N)c1ccccc1` (stereo not drawn) were, in that order, 5% and -0.52.
Turning to `CC(C)(C)[C@H]1CCc2c(sc(NC(=O)c3ccccc3F)c2C(=O)N2CCC(C(N)=O)CC2)C1`, the “% Inhibition” value came out at 5% and the Z score is -0.76.
The corresponding values for `CO[C@H]1[C@H](NC(=O)C(C)C)c2ccccc2C12CCN(C(=O)CCc1scnc1C)CC2` are 10% and -1.3.
For the compound `CCOc1nnc(CN2c3ccccc3CC[C@@H]2CCO)s1`, the “% Inhibition” value is recorded as -4% and the Z score came to 0.54.
The like results for `O=C(Cc1ccc(S(=O)(=O)Nc2ccc(F)c(Cl)c2)s1)N1CCCC1` were, in that order, 0% and -0.1.
The like results for `Cc1occc1C(=O)N1CCN(C(=O)c2ccccn2)[C@H]2CS(=O)(=O)C[C@H]21` were, in that order, -10% and 1.33.
The corresponding values for `Cc1cc(C(C)NC(C)CCS(C)(=O)=O)ccc1Br` (stereo not drawn) are -9% and 0.95.
As for `CCOCCCNC(=O)C(=O)NCc1nc(C)cs1`, the “% Inhibition” value is reported as 2% and the Z score is -0.17.
Turning to `O=C(O)c1nn2cc(-c3ccccc3CN3CCOCC3)cnc2c1Cl`, the “% Inhibition” value was 4% and the Z score is reported as -0.61.
Take `CC(=O)N[C@H]1CCN(C(=O)c2cc(Cl)c[nH]2)C1`: the “% Inhibition” value is recorded as 6% and the Z score is -0.76.
As to `COc1ccc2nc(-n3nc(C)c4c3NC(=O)C[C@@H]4c3cc(C)ccc3C)sc2c1`, the “% Inhibition” value is -6% and the Z score came to 0.99.
`Cc1cnc(CNC(=O)N[C@H](C)c2cc3ccccc3o2)s1`: the “% Inhibition” value worked out at 12% and the Z score is listed as -1.38.
The like results for `C=CCCC(=O)Nc1nc(C(C)(C)C)ns1` were, in that order, -47% and 5.56.
The like results for `O=C(O)C1(Oc2cccc(F)c2)CCN(c2ncnc3sccc23)CC1` were, in that order, -12% and 2.19.
The like results for `Cc1nocc1NC(=O)N[C@H]1CCN(CC(F)F)C1` were, in that order, 1% and -0.21.
`c1ccc(CN2CCN(Cc3nnc4n3CCCCC4)CC2)cc1`: the “% Inhibition” value was -5% and the Z score is listed as 0.72.
Regarding `Cc1cccc2c(N(C)Cc3ccc4c(c3)OCO4)ncnc12`, the “% Inhibition” value is 9% and the Z score was -1.17.
In the case of `O=C(OCC#Cc1ccccc1)c1cccc(-n2cccn2)n1`, the “% Inhibition” value is on record as -1% and the Z score is given as 0.1.
The corresponding values for `COc1ccc(-n2c(=O)[nH]c3nc(N4CCC(C(N)=O)CC4)ncc3c2=O)cc1` are -9% and 1.36.
The like results for `O=C1NCCN(Cc2ccn(CC(F)(F)F)n2)c2ccccc21` were, in that order, 3% and -0.4.
The like results for `Cc1cc(N2CCCC2)nc(CNC(=O)C(C)(C)C)n1` were, in that order, 0% and 0.01.
Turning to `CN(C)S(=O)(=O)NCC(C)(C)c1ccc(C(F)(F)F)cc1`, the “% Inhibition” value is given as -4% and the Z score was 0.61.
For `O=C(COc1ccc(Cl)cc1Cl)N1CCC(O)(Cn2ccnc2)CC1`, the “% Inhibition” value is reported as -1% and the Z score was 0.12.
The like results for `O=C1COc2ccc(C(=O)N3CCN(c4ccccc4F)CC3)cc2N1` were, in that order, 10% and -1.3.
The like results for `CO[C@@](C(=O)Nc1c(C)nn(CC(=O)O)c1C)(c1ccccc1)C(F)(F)F` were, in that order, 2% and -0.32.
The like results for `C[C@@H](C1CC1)n1ncc2[nH]c(-c3nccn3C)nc21` were, in that order, -1% and 0.09.
Consider `CCN1CCN(CC(=O)N2c3ccccc3C[C@@H]2C)CC1`, for which the “% Inhibition” value worked out at 2% and the Z score is given as -0.34.
The corresponding values for `CCNC(=O)CN1CN(c2ccccc2)C2(CCN(C(=O)Nc3ccccc3C)CC2)C1=O` are -15% and 1.43.
The corresponding values for `CN(C)C[C@]1(CO)CCCN(Cc2cccc3cc[nH]c23)C1` are -1% and 0.27.
`O=C(Nc1ccc(-c2c3ccccc3c(-c3ccc(NC(=O)c4cccc5ccccc45)cc3)c3ccccc23)cc1)c1cccc2ccccc12`: the “% Inhibition” value is given as -8% and the Z score is 1.08.
For `CN1CCN(C(=O)c2cc(NC(=O)N3CC(CC4CC4)C3)ccn2)CC1`, the “% Inhibition” value was -3% and the Z score was 0.6.
The like results for `CCC[C@H](C)NC(=O)c1ccc(N(C)S(C)(=O)=O)c(C)c1` were, in that order, -5% and 0.76.
In the case of `O=C(NCc1ccccc1)N(CCCN1CCCC1)C1CCOCC1`, the “% Inhibition” value is reported as -6% and the Z score is 1.21.
The corresponding values for `CC(C)(C)OC(=O)NCc1ccc(C(=O)NC2C3CCOC3C23CCC3)o1` (stereo not drawn) are -8% and 1.21.

The values above are taken from ChEMBL document CHEMBL4888484, “Replenishing the malaria drug discovery pipeline: Screening and hit evaluation of the MMV Hit Generation Library 1 (HGL1) against asexual blood stage Plasmodium falciparum ,using a nano luciferase reporter read-out” (2022).
